Results as given in the supplement of paper PMC3334620.
Whole data set: some 33,000 sequences, median “E-score (-0.5 to 0.5)” near -0.056, cut for the highest 2% near 0.38. The list shows a part of the results.

Biological target: Stb4 (UniProt P50104)
Experiment: PBM E-score (8-mer binding enrichment) (E-score (-0.5 to 0.5)); higher = stronger / more preferred TF binding; most listed sequences are background and not binding sites
Conditions: protein concentration: 200 nM; construct: GST-DNA-binding domain
Outline: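 GST-tagged yeast TFs (full-length or DNA-binding domain) were made by PURExpress in vitro transcription/translation and applied at about 100-200 nM to universal all-10-mer Agilent arrays. The arrays were made double-stranded by primer extension, on fresh or once-stripped slides. Bound protein was detected with fluorescent anti-GST, and scans were normalised with masliner. Each ungapped eight-base word, pooled with its reverse complement, received an E-score (modified Wilcoxon-Mann-Whitney statistic) from the Universal PBM Analysis Suite.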

Sequence	PBM E-score
AATCGGAA	0.425
AGCTTCCT	-0.104
AAAACCGT	0.00511
GGGGAGGA	0.0688
ATGATCAG	-0.213
CAGTAGTA	-0.167
TCGCATCA	0.124
GAGTATCA	-0.0369
ACCACCAA	0.031
ATGTGAAA	-0.196
ACAATTCT	-0.064
GCTGTAGA	-0.0384
CTCAGTGA	-0.292
AAGTGCTC	-0.0896
TCGTCCCA	-0.24
ATAGCCGA	0.442
AACGCAGT	-0.152
CTAACAGC	0.0685
CAGCCCTA	-0.0858
AATATATA	0.122
ATTTGTAA	-0.0728
GGGTTCAC	0.0402
CATAGACC	-0.0962
ATGCTGTA	-0.00315
GAGTATCC	0.301

Sequence	PBM E-score
GGGATCTA	0.0821
GATGGTCC	-0.0294
ACGCAATA	0.0233
TATGTTGA	-0.195
CCAGGACA	-0.15
GACGTCCA	-0.112
AGTCAAGG	-0.214
ACACTTAC	-0.0158
GCTCGAAC	-0.139
GCGAGGAA	0.107
GGCTCCAC	-0.128
CTAGAACC	-0.0142
ATCCGCAT	0.348
AAACTTGT	-0.0579
CGATCTCA	-0.0194
GGGCCGAA	0.314
CGGTTAGA	0.348
CCCCGAGG	0.375
ACATTGCA	-0.0752
ACGTTCTG	-0.0593
AACGCCCG	0.206
CATGAAGC	0.0769
AAATAGAC	-0.033
AGAGGTTG	-0.0907
GTACCATA	-0.182

Sequence	PBM E-score
CGTACGTC	-0.0706
AGTTCGCG	-0.047
ATAAAGCG	0.111
CCGTCCGC	0.143
GATGAGAA	-0.0842
CAGGGTGC	-0.047
AAGCAACA	-0.107
AACAGAGG	-0.0947
ACTCACAC	0.147
GTCCAAAC	-0.195
ATGGCACC	-0.0451
AGTTTTAC	-0.0407
CGCGTTGC	0.0107
CTTGACCA	-0.307
CGGGTGCC	0.369
GGGGGTCA	-0.107
TGTTTGAA	-0.0497
AGAATTCG	-0.0695
ACGTGGTG	-0.151
GAACCAGA	-0.126
GGCCCCGA	0.246
CAAGTTCC	0.19
AGATAGAG	-0.138
ACTGTAAC	-0.216
CAGTTGAA	-0.264

Sequence	PBM E-score
ACGCATCA	-0.0856
AAGTAGCG	-0.161
CGGTCAAG	0.171
GTATACCA	-0.124
AAACACTA	-0.0978
AAAAGGGA	-0.173
CGGCTAAA	0.388
GACGCGTC	-0.0901
AACATGCG	-0.116
CCTAACGA	-0.232
AAAAAGAT	-0.0748
AGGAAGTA	0.112
CTCCCCGC	0.215
AGGATGCG	-0.0756
GTTCCGTA	0.314
ACTAGAAG	-0.102
CGTAGAGA	-0.293
CTCGCCGC	0.0149
AACCCGAG	0.406
GGTCCCTA	-0.115
CGATATAC	0.0593
CTGTCGTA	-0.158
GCCCTCAA	-0.0883
ACCGGAGA	0.187
CCGAAGAC	0.374

Sequence	PBM E-score
CGCGTTGA	-0.0508
ATCCAGGC	-0.257
CTCTAGCC	0.0112
GGAAGCCC	0.272
ACCTTTAT	-0.156
CTGGGTTC	0.0654
AGGAGACA	-0.0517
GTAAGAGA	-0.241
GCGTACCC	0.197
CAATTCGC	0.0284
GGCGGAGA	0.196
GCATCGGC	0.277
GTAGGTTA	-0.0692
GTCTAAGA	-0.0862
GTTTTACA	-0.126
CTCTATTC	0.0692
GTAATGAC	-0.00934
ATCCACGC	-0.188
ACGTGCTA	-0.212
CACTGCGA	-0.102
CTTCTCAA	-0.176
ACAGACCT	0.00106
GATCTACA	-0.112
AAAATTCA	0.0549
CAAAGGTC	-0.194

Sequence	PBM E-score
ACGGTTGA	-0.0317
AGTACCCG	0.374
AATCGGAT	0.424
CCAGTCGA	-0.124
AGTCTTCG	-0.008
GGGAACGA	0.0562
CCCTGTCA	-0.217
AATGCAAT	-0.269
GGTTGTTA	0.1
CGAACCAG	0.0364
TCTACCAA	-0.212
ACCCTGGA	-0.0928
AGGGCAGA	-0.385
ATCGAGCG	-0.0388
CTTACGGA	0.228
CGGAGAAG	0.141
CCCACAAA	-0.0724
AAATAGTG	-0.0693
AGTAAGAT	-0.0775
AACTCTCA	-0.188
CTCCTGGC	-0.113
GACTGGAA	-0.105
CAGTGGGA	-0.0824
CATCAAAC	-0.176
GGGTTGGA	0.00594

Sequence	PBM E-score
ACGCCCAA	-0.0756
CGGCTGGA	0.207
AGTAATAC	0.00139
AGTGAATA	-0.0875
GGCGCAAC	-0.207
AAAGTAAC	-0.0491
ACCTCTAG	-0.142
AGGCGCCC	-0.207
CGACAGTA	0.00744
ATATTGCC	0.177
AACACACC	0.089
AGTACATC	-0.157
ACAAAGTA	-0.0971
CATTGCGC	-0.0387
AATTCCCT	-0.131
GGCACCAC	0.133
TAAGTATA	0.0522
GCGAGTAA	-0.0189
TCCCCAGA	-0.35
ATAGACCA	-0.109
ATCACCGA	0.287
TCAGAACA	-0.157
